Results from article PMC4336329 (PLoS ONE, 2015).
The whole screen tested about 310,000 compounds, of which about 14,000 (4.5%) showed an effect of 50% or more. The effect is printed as a negative number. This is one part of the list.

What follows are molecules tested against human ether-à-go-go-related gene (hERG) potassium channel (human, UniProt Q12809) (assay: primary screen, population patch clamp on CHO cells stably expressing hERG).
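Also: peak tail current of the secondary pulse compared with the same well before compound.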

Chain of human ether-à-go-go-related gene (hERG) potassium channel (Q12809 whole entry, looked up): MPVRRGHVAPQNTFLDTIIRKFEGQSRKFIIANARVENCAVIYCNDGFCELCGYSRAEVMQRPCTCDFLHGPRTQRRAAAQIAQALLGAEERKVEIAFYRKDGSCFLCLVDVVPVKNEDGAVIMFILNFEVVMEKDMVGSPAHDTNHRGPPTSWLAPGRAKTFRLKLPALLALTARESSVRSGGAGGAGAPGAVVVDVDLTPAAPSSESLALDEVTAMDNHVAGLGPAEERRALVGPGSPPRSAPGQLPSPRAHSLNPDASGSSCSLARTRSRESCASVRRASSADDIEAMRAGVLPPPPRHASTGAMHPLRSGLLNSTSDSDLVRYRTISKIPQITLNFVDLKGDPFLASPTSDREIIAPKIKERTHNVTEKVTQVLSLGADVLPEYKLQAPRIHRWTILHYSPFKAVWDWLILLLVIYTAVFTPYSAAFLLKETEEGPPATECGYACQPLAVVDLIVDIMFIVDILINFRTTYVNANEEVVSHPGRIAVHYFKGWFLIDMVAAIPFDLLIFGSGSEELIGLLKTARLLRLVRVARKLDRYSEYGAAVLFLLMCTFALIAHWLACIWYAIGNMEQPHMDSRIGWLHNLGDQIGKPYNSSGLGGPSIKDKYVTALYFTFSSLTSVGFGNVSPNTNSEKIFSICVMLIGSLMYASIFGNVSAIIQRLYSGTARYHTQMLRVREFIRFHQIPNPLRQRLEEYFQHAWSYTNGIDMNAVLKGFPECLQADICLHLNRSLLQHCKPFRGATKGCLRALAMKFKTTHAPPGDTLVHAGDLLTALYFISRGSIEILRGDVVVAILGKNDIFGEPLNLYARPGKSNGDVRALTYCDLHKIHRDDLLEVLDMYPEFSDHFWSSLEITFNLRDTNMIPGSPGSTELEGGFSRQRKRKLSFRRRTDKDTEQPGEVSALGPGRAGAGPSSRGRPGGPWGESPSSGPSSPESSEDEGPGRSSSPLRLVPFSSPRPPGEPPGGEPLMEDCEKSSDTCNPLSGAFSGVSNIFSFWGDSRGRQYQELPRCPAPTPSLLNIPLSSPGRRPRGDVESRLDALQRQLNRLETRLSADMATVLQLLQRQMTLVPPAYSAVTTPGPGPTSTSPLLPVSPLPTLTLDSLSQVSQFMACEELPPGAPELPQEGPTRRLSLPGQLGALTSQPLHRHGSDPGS

| SMILES | hERG current change (%, negative = inhibition) at 10uM [%] |
| --- | --- |
| CCn1c(SCC(=O)Nc2ccc(C(C)=O)cc2)nnc1C1CC1 | 8.19 |
| O=C(O)C1(S(=O)(=O)CCC(F)=C(F)F)CC1 | 21.6 |
| Cc1ccc(N2CC(C)Cn3c2nc2c3c(=O)n(CC(=O)OCc3ccccc3)c(=O)n2C)cc1C (stereo not shown) | -15.7 |
| Cc1cccc(OCCCC(=O)Nc2ccc(S(=O)(=O)Nc3onc(C)c3C)cc2)c1 | 8.48 |
| O=C(NC1CCCCC1)N(CCN1CCCC1)Cc1cc2cc3c(cc2[nH]c1=O)OCCO3 | 4.34 |
| c1ccc(-c2nnc(-c3ccccc3)c(-c3c[nH]c4ccccc34)n2)cc1 | 10.5 |
| CCOc1ccccc1NC(=O)NNS(=O)(=O)c1cc(C)ccc1C | 6.71 |
| CN1CCN(S(=O)(=O)c2ccc3ccccc3c2)CC1 | 1.81 |
| CC1CCCCN1C(=O)CSc1nc2ccccc2[nH]1 (stereo not shown) | 25.8 |
| CC(C)CC(c1nnnn1C(C)C)N1CCN(C(=O)c2ccco2)CC1.Cl (stereo not shown) | -35.2 |
| COc1ccc(-c2cccc(C(=O)Nc3ccc(C)cc3)c2)cc1 | 16.9 |
| Cc1cn(S(=O)(=O)c2cc(Br)ccc2Br)cn1 | 1.08 |
| O=C1NC(=O)N(Cc2ccco2)C(=O)/C1=C/C=C/c1ccco1 | 6.95 |
| Cc1cc(NC(=O)CCC2COc3ccccc3O2)no1 (stereo not shown) | 2.92 |
| C=CCOc1ccc2c(c1)C(=NO)c1cc(OCC=C)ccc1-2 | 7.91 |
| C1=C(N2CCOCC2)/C(=C/c2nc3ccccc3[nH]2)CC1 | 6.62 |
| O=C(CSC(=S)N1CCOCC1)Nc1ccc(S(=O)(=O)Nc2ncccn2)cc1 | 21.4 |
| COc1ccc(C2c3sc(=O)[nH]c3SC3C4CCC(C4)C23)cc1OC (stereo not shown) | -17.5 |
| CC1CCN(Cc2nnnn2CCCC(=O)NCCN2CCOCC2)CC1 | 9.52 |
| NC(=O)C1(N2CCCCC2)CCN(C(=O)Nc2ccccc2C(F)(F)F)CC1 | 12.4 |
| COc1ccccc1/C=N/NC(=O)c1nnn(-c2nonc2N)c1CN(C)c1ccccc1 | 13.4 |
| CCN(CC)c1ccc(NC(=O)c2ccccc2OCC(=O)OC)cc1 | -0.764 |
| O=C(Nc1ccc2nc(-c3ccccn3)[nH]c2c1)C1CCCCC1 | -7.58 |
| O=C(O)CCCNS(=O)(=O)c1cccs1 | 13.9 |
| CCOc1ccc2oc(=O)cc(C)c2c1 | 14.3 |
| C=C1CSc2nc(=O)c3c4c(sc3n21)CCC4 | -7.85 |
| C=CC[n+]1c(-c2ccc(C)cc2)csc1Nc1c(C)n(C)n(-c2ccccc2)c1=O.[Br-] | -26.4 |
| Cc1cc(C)cc(OCC(=O)OCC(=O)N(C)CC(=O)Nc2ccc(F)cc2)c1 | -4.65 |

| SMILES | hERG current change (%, negative = inhibition) at 10uM [%] |
| --- | --- |
| Cc1cccc(C)c1OCC(O)CN1CCc2ccccc2C1.Cl (stereo not shown) | -64.2 |
| O=C(Cn1ncc2c(=O)oc3ccccc3c21)NCC1CCCO1 (stereo not shown) | 9.96 |
| O=C(CSc1n[nH]c(=O)[nH]c1=O)Nc1ccc2c(c1)C(=O)c1ccccc1C2=O | 0.284 |
| COC(=O)C1=C(C(=O)OC)[C@@H]2N(C)c3ccccc3[C@@]23C[C@@H](C(=O)OC)N(C(=O)c2cc(C)oc2C)C3=N1 | -10 |
| CN(C)c1ccc(NS(=O)(=O)c2cc3c4c(c2)CC(=O)N4CCC3)cc1 | 5.66 |
| COc1ccc(S(=O)(=O)NCCc2csc(C)n2)cc1C | 12.4 |
| O=C(Nc1cccc(NC(=O)c2c(F)cccc2F)n1)c1c(F)cccc1F | 29.2 |
| COC(=O)COc1ccc(-c2nn(C)c(=O)c3ccccc23)cc1 | 2.26 |
| CCCCCCSc1ccc([C@H]2N[C@@](C)(C(=O)OC)[C@H]3C(=O)N(C)C(=O)[C@@H]23)cc1.O=C(O)C(F)(F)F | -12.2 |
| CC(C)n1c(Oc2ccc(F)cc2)nc2c1c(=O)n(C)c(=O)n2C | -9.1 |
| O=C1C(=O)N(CCN2CCOCC2)C(c2ccccc2F)/C1=C(\O)c1ccc(S(=O)(=O)N2CCOCC2)cc1 (stereo not shown) | 11.5 |
| O=C(NNC(=O)c1ccco1)c1ccccc1 | -0.866 |
| O=C(Nc1cccnc1)C1CC(=O)N(c2ccc(F)cc2)C1 (stereo not shown) | 22.9 |
| Cc1coc2cc3oc(=O)cc(C)c3cc12 | 8.61 |
| COc1ccc(-c2cc(=O)oc3cc(OC(C)C(=O)NC4CC4)ccc23)cc1 (stereo not shown) | 3.64 |
| Cc1cccc(OCc2nnc(SCC(=O)Nc3cccc(C(=O)N4CCOCC4)c3)o2)c1C | -2.16 |
| O=C(COC(=O)COc1ccccc1)Nc1cccc([N+](=O)[O-])c1 | 9.51 |
| O=C(Cn1nnc(-c2ccncc2)n1)N1CCc2ccccc21 | 15.2 |
| OC(CCN1CCCCC1)c1ccc(-c2ccccc2)cc1 (stereo not shown) | -56.4 |
| CSc1ccccc1NC(=O)c1ccc([N+](=O)[O-])cc1 | -38.6 |
| CN(C)S(=O)(=O)c1cccc(C(=O)OCC(=O)c2c(N)n(C)c(=O)n(C)c2=O)c1 | -11.3 |
| COc1ccc(N(CC(=O)NCc2ccc(F)cc2)S(=O)(=O)c2c(C)noc2C)cc1 | -17.9 |
| Cc1cccc(-n2ncc(C#N)c2N)c1 | 17.4 |
| CC(=O)c1cc2c(cc1N(C(=O)c1ccco1)C(C(=O)NC1CCCC1)c1ccccc1F)OCO2 (stereo not shown) | 4.2 |
| Cc1cc(C(=O)NNC(=O)CN2C(=O)NC3(CCCCC3)C2=O)c(C)o1 | 8.88 |
| CCN(CC)C(=O)CSc1nnc2sc3ccccc3n12 | 14.8 |
| O=C(NC(=S)Nc1nc(-c2cccc([N+](=O)[O-])c2)cs1)c1ccccc1Cl | 13.5 |
